Test system: BALB/c mice
Experiment: Mouse serum cytokines/chemokines after IV, SubQ or IM injection
Format: in vivo
Settings: summary statement

## CCCCCCCCCCCCCC[C@@H](O)[C@@H](O)[C@H](CO[C@H]1O[C@H](CO)[C@H](O)[C@H](O)[C@H]1O)NC(=O)CCCCCCCCCCc1ccc(-c2ccc(F)cc2)cc1 [C30]
  TH1- or TH2-biased response (as shown in the results above): TH1-biased response

— patent US20080260774A1, “Alpha-galactosyl ceramide analogs and their use as immunotherapies” (priority 2007, published 2008)
